PubChem BioAssay AID1745853 (National Center for Advancing Translational Sciences (NCATS), 2022)
Some of the results follow. Further columns of the screen follow, without active or inactive calls.

Key:
Test in all cases: Primary Screen for Target Class Profiling of Small Molecule Inhibitors of Methyltransferases
[1] = target: Glycine N-methyltransferase (Homo sapiens) (UniProt Q14749); settings: purified enzyme, MTase-Glo SAH luminescence; measured here: GNMT inhibition; at 40 µM; stronger effect = lower value
In short: (§1)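 Each enzyme was assayed with SAM and its substrate. SAH formation detected by MTase-Glo luminescence; single-point 40 uM screen[…].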

[2] = target: Guanidinoacetate N-methyltransferase (Homo sapiens) (UniProt Q14353); settings: purified enzyme, MTase-Glo SAH luminescence; measured here: GAMT inhibition; at 40 µM; stronger effect = lower value
In short: as §1

[3] = target: Histamine N-methyltransferase (Homo sapiens) (UniProt P50135); settings: purified enzyme, MTase-Glo SAH luminescence; measured here: HNMT inhibition; at 40 µM; stronger effect = lower value
In short: as §1

[4] = target: Nicotinamide N-methyltransferase (Homo sapiens) (UniProt P40261); settings: purified enzyme, MTase-Glo SAH luminescence; measured here: NNMT inhibition; at 40 µM; stronger effect = lower value
In short: as §1

[5] = target: Phenylethanolamine N-methyltransferase (Homo sapiens) (UniProt P11086); settings: purified enzyme, MTase-Glo SAH luminescence; measured here: PNMT inhibition; at 40 µM; stronger effect = lower value
In short: as §1
% is scaled to controls: 0 for no effect and ±100 for the full control effect.

| SMILES | activity change, negative = inhibition [1] [%] | activity change, negative = inhibition [2] [%] | activity change, negative = inhibition [3] [%] | activity change, negative = inhibition [4] [%] | activity change, negative = inhibition [5] [%] |
| --- | --- | --- | --- | --- | --- |
| CC/C=C\CC1C(CC(=O)O)CCC1OC1OC(CO)C(O)C(O)C1O (stereo unspecified) | 0 | 6.9 | 11.4 | -4.64 | 4 |
| CC(C)(C)c1cc2n(n1)CC(C)(C(=O)NC1CCCCCC1)N(Cc1ccccc1F)C2=O (stereo unspecified) | 1.89 | 0 | 3.78 | 2.93 | -0.669 |
| CCc1nc2c(c(-c3ccc(O)cc3)n1)CN(Cc1ccc(NC(C)=O)cc1)CC2 | -15.9 | -1.81 | -22 | -7.47 | -5.06 |
| O=C(NC1CCN(C(=O)c2ccc(-c3cncnc3)cc2)CC1)c1ccccc1F | -11.1 | -12.2 | -6.72 | -14.8 | -12.7 |
| COc1cccc(CN2C(=O)c3cc4occc4n3CC2(C)C(=O)NC2CCCCCCC2)c1OC (stereo unspecified) | -2.08 | 4.25 | -3.15 | -6.83 | -3.62 |
| COc1ccc(C(=O)N2CCCCC23Cc2ccccc2NC3=O)cc1 (stereo unspecified) | -5.35 | -0.572 | -0.927 | -1.82 | 1.38 |
| Cc1cccc(CNC(=O)Cn2ccc3cc(S(=O)(=O)N4CCCCC4)ccc32)c1 | -0.573 | 0 | -2.05 | -4 | -0.668 |
| O=C(O[C@@H]1O[C@H](CO)[C@@H](O)[C@H](O)[C@H]1O)c1c(O)cc(O)cc1/C=C/c1ccccc1 | 3.9 | 6.72 | 11.1 | -5.33 | 8.36 |
| COCCNC(=O)c1cc2n(n1)CC(C)(C(=O)NCc1ccc(F)cc1)N(C)C2=O (stereo unspecified) | 2.4 | 0.299 | 1.96 | 2.77 | -1.38 |
| Cc1ccc(C)c(N2C(=O)c3cc4sccc4n3CC2(C)C(=O)NC2CCCCCC2)c1 (stereo unspecified) | -7.94 | 1.43 | -8.73 | -3.22 | -7.01 |
| C#C[C@]1(O)CC[C@H]2[C@@H]3CCC4=Cc5oncc5CC4(C)[C@H]3CCC21C (stereo partly specified) | -3.79 | 9.92 | 2.21 | -15.5 | 3.99 |
| Cc1cc(C(=O)N2CCC(CCOc3ccc(F)cc3)C2)c(C)n1Cc1ccc(F)cc1 (stereo unspecified) | -12.3 | -10.9 | -8.49 | -23.8 | -13.4 |
| N#Cc1c2nc3ccccc3nc2n2ccc(NC(=O)c3cccs3)cc12 | – | -3.88 | – | -14.3 | -37.3 |
| O=C(CCC1CCCN(S(=O)(=O)c2ccccc2F)C1)NCc1cccs1 (stereo unspecified) | -1.58 | 2.6 | -2.78 | -4.4 | -7.04 |
| COc1ccc2c(c1)c(NC(C)=O)c1n2CC(C)(C(=O)NC2CCCCC2)N(Cc2ccco2)C1=O (stereo unspecified) | -8.7 | 3.94 | 0.112 | -2.83 | -2.29 |
| C=CCNC(=O)N[C@H]1C[C@@H](C(=O)N[C@@H](Cc2ccc(OC)cc2)C(N)=O)N(C(=O)CC(C)(C)C)C1 | 0.676 | 0.04 | 0.402 | -3.37 | 2.51 |
| COc1ncc2cc(C(=O)Nc3cc(C(=O)NCc4cccc(Cl)c4)ccc3Cl)c(=O)[nH]c2n1 | 2.19 | 6.04 | 8.14 | -6.89 | 0.708 |
| OC1CCOC2(CCN(Cc3cccnc3)CC2)C1 (stereo unspecified) | -3.45 | -6.88 | -1.71 | -10.7 | 3.76 |
| COc1ccc(OC)c(CNC(=O)c2cc3n(n2)CC(C)(C(=O)NC2CCCCC2)N(C)C3=O)c1 (stereo unspecified) | -0.715 | -0.678 | 1.9 | 2.58 | -1.85 |
| CC(=O)NC(CO)C(=O)N1CCc2[nH]nc(-c3ccc(F)c(F)c3)c2C1 (stereo unspecified) | -1.26 | 1.59 | 0.826 | 1.02 | 2.89 |

| SMILES | activity change, negative = inhibition [1] [%] | activity change, negative = inhibition [2] [%] | activity change, negative = inhibition [3] [%] | activity change, negative = inhibition [4] [%] | activity change, negative = inhibition [5] [%] |
| --- | --- | --- | --- | --- | --- |
| CCc1cc2c(cc3n2CC(C)(C(=O)NC2CCCCCC2)N(c2cccc(OC)c2)C3=O)s1 (stereo unspecified) | 3.04 | 1.24 | 5.14 | -2.19 | 0.483 |
| CSc1ccc(-c2cccc(C(=O)NCC(=O)N3CCCC3)c2)cc1 | -11.8 | -8.4 | -6.56 | -16.8 | -11.4 |
| O=C(Cn1nc2n(Cc3ccc(F)cc3)c(=O)c3ccccc3n2c1=O)c1ccc(F)cc1 | 7.16 | 2.48 | 11.4 | 5.67 | 7.52 |
| N=c1nc2n(cc1F)C1OC(CO)C(O)C1O2 (stereo unspecified) | 5.9 | 8 | 3.22 | -6.78 | 2.45 |
| CC1CCCC(NC(=O)C2(C)Cn3c(nc4ccccc43)C(=O)N2CC2CCCO2)C1C (stereo unspecified) | 5.7 | 0 | 4.18 | 5.71 | 0.921 |
| COc1ccc(N2C(=O)c3cc4sccc4n3CC2(C)C(=O)NC2CCCCC2)cc1OC (stereo unspecified) | -0.57 | 0 | 4.12 | 6.44 | 1.14 |
| Cc1noc(C)c1S(=O)(=O)N1CCC2(C1)N=C(c1ccccn1)C(=O)N2 (stereo unspecified) | -4.05 | -6 | -1.24 | -12.5 | -6.54 |
| Cc1cnc(C2CC2)n1C1CCN(S(=O)(=O)c2ccc3c(c2)OCCO3)CC1 | -4.41 | 0 | -8.51 | -31 | -0.663 |
| CO[C@H]1C=C2C(CC[C@H](O[C@@H]3O[C@H](CO)[C@@H](O)[C@@H](O)[C@H]3O)C2(C)C)[C@]2(C)CC[C@]3(C)C([C@H](C)C(O)C(C=C(C)C)O[C@@H]4O[C@H](CO)[C@@H](O)[C@@H](O)[C@H]4O)CC[C@@]3(C)C12 (stereo partly specified) | 0 | 8.77 | 5.52 | -6.19 | 5.65 |
| CCOc1cccc(C2c3cccn3-c3sc4c(c3CN2C(=O)Nc2ccc(OC)cc2OC)CCCC4)c1 (stereo unspecified) | -6.53 | -1.61 | -3.04 | -8.68 | -2.65 |
| On1ncc(C2CCNCC2)c1-c1cccc(-c2ccccc2)c1 | -7.09 | -3.63 | 6.3 | -16.1 | -0.106 |
| COc1ccc2cc3n(c2c1)CC(C)(C(=O)NC1CCCC1)N(Cc1ccccc1)C3=O (stereo unspecified) | 1.11 | -4.06 | 2.77 | -7.68 | -3 |
| CC(C)CNC(=O)N1CCCCC1c1nc(CCOc2ccc(F)cc2)no1 (stereo unspecified) | -1 | -2.63 | -1.93 | -6 | -9.31 |
| COc1ccccc1CN1C(=O)c2cc3oc(C)cc3n2CC1(C)C(=O)NC1CCCCCCC1 (stereo unspecified) | 1.7 | 0 | 9.92 | 6.86 | 0.016 |
| CC1CCCCN1CCCN1C(=O)c2ccc(-c3ccco3)n2CC1(C)C(=O)NC1CCCCCC1 (stereo unspecified) | -4.58 | 2.85 | -6.97 | -7.55 | -3.16 |
| COc1ccc(CC(=O)NC[C@@H]2CC[C@H]3C[C@@H]2C3(C)C)cc1 | -7.48 | -7.38 | -4.76 | -26.9 | -7.59 |
| Cc1ccc(Cn2nc3n(C(C)C)c(=O)c4ccc(C(=O)NCC(C)C)cc4n3c2=O)cc1 | 3.97 | 0 | 8.62 | 4.15 | 6.05 |
| CC(=O)N1CCC2(CCN(C(=O)c3ccc(Cl)cc3)CC2)Oc2ccccc21 | -3.3 | -2.94 | -12.5 | -9.78 | -5.41 |
| O=C(Cn1ccc2cc(S(=O)(=O)N3CCCC3)ccc21)NCCC1=CCCCC1 | -0.207 | 2.03 | 4.91 | -1.88 | -7.69 |
| CCn1nc(CC(C)C)cc1C(=O)N(C)C1CCCN(C2Cc3ccccc3C2)C1 (stereo unspecified) | -1.84 | -6.76 | 1.02 | -2.8 | -3.75 |

| SMILES | activity change, negative = inhibition [1] [%] | activity change, negative = inhibition [2] [%] | activity change, negative = inhibition [3] [%] | activity change, negative = inhibition [4] [%] | activity change, negative = inhibition [5] [%] |
| --- | --- | --- | --- | --- | --- |
| O=C(CC1CC1)NC1CCCc2nc(-c3ccccc3)ncc21 (stereo unspecified) | 0.474 | -0.256 | 2.38 | -2.48 | 13 |
| CN(C)C[C@H]1O[C@@H](CO)[C@@H](O)[C@H]1N1CCN(c2ncccn2)CC1 | -1.1 | -2.22 | 1.02 | -2.6 | -2.23 |
| C=C1C(O)C(O)C2(CC3C(C)=CCC4C(C)(C(=O)O)CCCC34C)OC2C1O (stereo unspecified) | 0 | -7.04 | 7.86 | -19.2 | -8.15 |
| COc1ccccc1CNC(=O)C1(C)Cn2nc(-c3ccccc3)cc2C(=O)N1c1ccccc1C (stereo unspecified) | 7.34 | 3.08 | 10.5 | 9.45 | 2.45 |
| C=C(C)COc1ccc(C(=O)N2CCN3C(=O)CN(C)C(=O)C3C2)cc1 (stereo unspecified) | 1.07 | -0.196 | 2.24 | -2.8 | -0.502 |
| Cc1cc(C)c2[nH]c(CN3CCC(N)C3)cc(=O)c2c1 (stereo unspecified) | -5.77 | -4.64 | -3.1 | -13.6 | -5.74 |
| O=C(CCc1nnc2n(Cc3ccc(F)cc3)c(=O)c3ccccc3n12)N1CCc2ccccc2C1 | 6.36 | 0 | 4.35 | 11.5 | -0.306 |
| CC(C)CN1CC(COc2ccc3ccccc3c2)Oc2ccnc(-c3ccc(OCC(=O)O)cc3)c2C1=O (stereo unspecified) | -13.2 | -1.94 | -1.68 | -9.84 | 15.4 |
| CCCn1c(=O)c2ccc(C(=O)NCC(C)C)cc2n2c(=O)n(CC(=O)c3cccc(Cl)c3)nc12 | 6.69 | 1.44 | 7.75 | 2.73 | 7.12 |
| O=C(Cc1ccc(-n2cnnn2)cc1)N[C@@H]1COCC[C@@H]1OCc1ccccc1 | -4.86 | -1.94 | -0.193 | -7.2 | 2.65 |
| CCC1c2ccc(C)n2CCN1C(=O)Nc1ccc(Cl)cc1 (stereo unspecified) | -5.41 | -0.287 | -0.587 | -2.28 | -3.51 |
| CCCCC(=O)N(Cc1ccc(-c2ccccc2-c2nn[nH]n2)cc1)[C@H](C(=O)O)C(C)C | – | -1.77 | – | -13.2 | 0.794 |
| Cc1cc(C(=O)N[C@@H]2CCC[C@@H](C(=O)N(C)Cc3cccnc3)CC(=O)N(C)C2)no1 | -4.19 | -5.46 | -2.24 | -7.8 | -5.5 |
| Cc1ccc(C(=O)N(C)CC2CCOC2)cc1 (stereo unspecified) | -1.38 | 0.183 | 1.28 | 1.18 | 14.6 |
| CCc1nnc(NS(=O)(=O)c2ccc(NC(=S)NC(=O)/C=C/c3ccc(F)cc3)cc2)s1 | -43.5 | -15 | 6.54 | -37.9 | -4.03 |
| CN1CCN(C(=O)c2ccc(Nc3nccc(-c4cccs4)n3)cc2Cl)CC1 | -51.8 | 10.6 | -0.02 | -36.5 | 3.73 |
| CCOCCCNC(=O)N1Cc2c(sc3c2CCCC3)-n2cccc2C1c1cccc(OCC)c1 (stereo unspecified) | -3.39 | 0 | 0.754 | -12.1 | 3.87 |
| NCCCCCCCCCCN | -2.53 | 12.6 | 0.221 | -0.113 | 12.1 |
| Cc1ccc(N2C(=O)c3cc4sccc4n3CC2(C)C(=O)NC2CCCC(C)C2C)cc1 (stereo unspecified) | 0.533 | 0 | -0.668 | 2.7 | -1.03 |
| CC(=O)/C=C1\C(=O)N(C)c2ccccc21 | -17.8 | 2.1 | -0.544 | -7.71 | 1.97 |
